Assay results reported in ChEMBL document CHEMBL4813913, “In vitro identification of imidazo[1,2-a]pyrazine-based antileishmanial agents and evaluation of L. major casein kinase 1 inhibition” (Eur J Med Chem, 2021).

Assays:
[1] = Toxicity against Galleria mellonella larva assessed as reduction of viability at 50 mg/kg measured for 7 days; assay type: organism-based; details: in vivo, 168 h, time 7 day
How it was run: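 G. mellonella larvae (6th stage, 260–320 mg), groups of ten. Injected in the 4th left pro-leg with 10 μL at 10–50 mg/kg; controls got PBS/DMSO (DMSO <40%). Kept in the dark at 37 °C. Survival and cuticular darkening scored daily for 7 days; death taken as no movement on stimulus. Kaplan-Meier with log-rank test; two independent experiments.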

[2] = Selectivity index, ratio of CC50 for mouse RAW264.7 cells to IC50 for amastigote stage of Leishmania braziliensis (MHOM/BR/75/M2903b) infected in mouse RAW264.7 cells; assay type: toxicity, cell-based; details: read-out: Ratio CC50/IC50
How it was run: (§1)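 Selectivity index is CC50 on RAW 264.7 or MRC-5 cells divided by IC50 on intracellular amastigotes.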

[3] = target: T1, Glycogen synthase kinase-3 (Sus scrofa, UniProt B2LUN4+I6LNT8); test: Inhibition of pig brain GSK alpha/beta using YRRAAVPPSPSLSRHSSPHQSpEDEEE as substrate in presence of ATP measured after 30 mins by ADP-Glo assay; assay type: ADME, tissue-based, Sus scrofa domesticus
[4] = Cytotoxicity against human MRC5 cells assessed as reduction in cell viability measured after 96 hrs by resazurin assay; assay type: cell-based
How it was run: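 Human MRC-5 fibroblasts grown in RPMI 1640 with 10% FBS. Exposed to 100, 10 and 1 μM in triplicate for 96 h. Then 10 μL of 700 μM resazurin added for 4 h and fluorescence read. Value is the mean of triplicates.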

[5] = tested on: Leishmania major; test: Antileishmanial activity against amastigote stage of Leishmania major (MHOM/IL/81/BNI) infected in BALB/c mouse peritoneal macrophages assessed as reduction in parasitic proliferation measured after 4 days by MayGrunwald-Giemsa stain based microscopic method; assay type: functional, organism-based; details: Peritoneal macrophage, 96 h
How it was run: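 BALB/c peritoneal macrophages on glass slides, 1.5×10⁵ cells/mL in RPMI 1640 with 15% FBS, 24 h attachment. Infected with stationary-phase promastigotes (1.5×10⁶/mL) for 24 h at 37 °C, 5% CO₂. Washed, then exposed 4 days to 100, 10, 1, 0.1 μM (DMSO ≤1% final). Methanol-fixed, May-Grunwald-Giemsa stained, amastigotes counted in 100 macrophages per duplicate well. IC50 from amastigotes/macrophage. Run twice.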

[6] = Cytotoxicity against mouse RAW264.7 cells assessed as reduction in cell growth measured after 48 hrs by SYBR Green 1 dye based fluorescence assay
How it was run: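 RAW 264.7 cells seeded at 100,000 cells/well in DMEM with 10% FBS, 24 h at 37 °C, 5% CO₂. Two-fold serial dilutions, final 49 nM–100 μM, for 48 h. Growth read by SYBR Green I. CC50 by nonlinear regression. Miltefosine reference; untreated cells as growth control.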

[7] = Selectivity index, ratio of CC50 for human MRC5 cells to IC50 for amastigote stage of Leishmania major (MHOM/IL/81/BNI) infected in BALB/c mouse peritoneal macrophages; assay type: toxicity; details: read-out: Ratio CC50/IC50; how it was run: as §1
[8] = target: Receptor-interacting serine/threonine-protein kinase 3 (Homo sapiens, UniProt Q9Y572); test: Inhibition of recombinant human RIPK3 expressed in baculovirus infected Sf9 cells using MBP as substrate in presence of ATP measured after 30 mins by ADP-Glo assay; assay type: ADME; details: sf9, 0.5 h
[9] = Inhibition of recombinant Leishmania major CK1.2 expressed in bacterial expression system using RRKHAAIGSpAYSITA as substrate in presence of ATP measured after 30 mins by ADP-Glo assay
[10] = target: Casein kinase I isoform epsilon (Homo sapiens, UniProt P49674); test: Inhibition of recombinant human CK1 epsilon expressed in baculovirus infected Sf9 cells using RRKHAAIGSpAYSITA as substrate; assay type: ADME
[11] = Selectivity index, ratio of CC50 for mouse RAW264.7 cells to IC50 for amastigote stage of Leishmania major (MHOM/IL/81/BNI) infected in BALB/c mouse peritoneal macrophages; assay type: toxicity; details: read-out: Ratio CC50/IC50; how it was run: as §1
[12] = target: T1, Glycogen synthase kinase-3; test: Inhibition of pig brain GSK alpha/beta using YRRAAVPPSPSLSRHSSPHQSpEDEEE as substrate in presence of [gamma-33P]ATP by radiometric assay; assay type: ADME, Sus scrofa domesticus
[13] = target: Dual specificity protein kinase CLK1 (Mus musculus, UniProt P22518); test: Inhibition of recombinant mouse CLK1 expressed in bacteria using GRSRSRSRSRSR as substrate in presence of [gamma-33P]ATP by radiometric assay; assay type: ADME
[14] = target: CDK2/Cyclin A2 (Homo sapiens, UniProt P24941); test: Inhibition of human CDK2/ cyclinA using histone H1 as substrate in presence of [gamma-33P]ATP by radiometric assay; assay type: ADME, protein-complex assay
[15] = target: Cyclin-dependent kinase 5/CDK5 activator 1 (Homo sapiens, UniProt Q00535); test: Inhibition of human recombinant CDK5/ p25 expressed in bacterial expression system using histone H1 as substrate in presence of [gamma-33P]ATP by radiometric assay; assay type: ADME
[16] = target: Serine/threonine-protein kinase pim-1 (Homo sapiens, UniProt P11309); test: Inhibition of recombinant human PIM1 expressed in bacteria using histone H1 as substrate in presence of [gamma-33P]ATP by radiometric assay; assay type: ADME

SMILES | Activity [1] | selectivity ratio [2] | IC50 [3] [µM] | CC50 at 96 h [4] [µM] | IC50 [5] [µM] | CC50 at 48 h [6] [µM] | selectivity ratio [7] | inhibition (INH) [8] | IC50 [9] [µM] | IC50 [10] [µM] | selectivity ratio [11] | IC50 [12] [µM] | IC50 [13] [µM] | IC50 [14] [µM] | IC50 [15] [µM] | inhibition (INH) [16]
CN(C)c1nccn2c(-c3cncnc3)c(-c3ccc(F)cc3)nc12 | Non-Toxic | 1.7 | > 10 | > 100 | 33.6 | 39.1 | > 3 | Not Active | 29 | > 100 | 1.2 | – | – | – | – | –
CN(C)c1nccn2c(-c3ccnc(N)n3)c(-c3ccc(F)cc3)nc12 | Non-Toxic | – | – | 100 | 8.24 | 42.2 | – | – | – | – | – | > 10 | 0.25 | > 10 | > 10 | Not Active
CN(C)c1nccn2c(-c3ccncc3)c(-c3ccc(F)cc3)nc12 | Non-Toxic | – | > 10 | > 100 | 0.8 | 42 | – | Not Active | 0.72 | 0.92 | – | – | – | – | – | –
CN(C)c1nccn2c(-c3ccc4[nH]ncc4c3)c(-c3ccc(F)cc3)nc12 | Non-Toxic | – | > 10 | 24.8 | > 12.5 | 7.41 | – | Not Active | 1.88 | 2.08 | – | – | – | – | – | –
CSc1nccc(-c2c(-c3ccc(F)cc3)nc3c(Cl)nccn23)n1 | Non-Toxic | 0.7 | – | 79.9 | > 100 | 49.8 | – | – | – | > 10 | – | > 10 | > 10 | > 10 | > 10 | Not Active
CSc1nccc(-c2c(-c3ccccc3)nc3c(Cl)nccn23)n1 | Non-Toxic | – | – | 33.5 | > 100 | 50.6 | – | – | – | – | – | > 10 | > 10 | > 10 | > 10 | Not Active
